# Assay results published in the supplement of paper PMC8728848.
# Some of the results follow.
# B1: HMGB1 (Homo sapiens), P09429 (protein)
# chain: MGKGDPKKPRGKMSSYAFFVQTCREEHKKKHPDASVNFSEFSKKCSERWKTMSAKEKGKFEDMAKADKARYEREMKTYIPPKGETKKKFKDPNAPKRPPSAFFLFCSEYRPKIKGEHPGLSIGDVAKKLGEMWNNTAADDKQPYEKKAAKLKEKYEKDIAAYRAKGKPDAAKKGVVKAEKSKKKKEEEEDEEDEEDEEEEEDEEDEDEEEDDDDE
# How the values were obtained:
# Assay in all cases: glycan array binding signal (z-score within array); higher = stronger binding
# Conditions in all cases: glycan notation: IUPAC condensed, linker removed
# [1] = target: Gal(a1-4)GlcNAc
# In short: (§1)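 Arrays were curated from the Consortium for Functional Glycomics database, 3228 in total, and kept only where the protein sequence was available. Binding is expressed as a within-array Z-score. This score was averaged across arrays of the same protein sequence at different concentrations or buffers and across linkers, and negative values can be read as non-binding.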
# [2] = target: Gal(a1-6)Glc
# In short: as §1
# [3] = target: Gal(b1-2)Gal
# In short: as §1
# [4] = target: Gal(b1-3)Gal
# In short: as §1
# [5] = target: Gal(b1-3)GalNAc
# In short: as §1
# [6] = target: Gal(b1-3)GalNAc(b1-3)Gal(a1-4)Gal(b1-4)Glc
# In short: as §1
# [7] = target: Gal(b1-3)GalNAc(b1-3)Gal(b1-4)Glc
# In short: as §1
# [8] = target: Gal(b1-3)GalNAc(b1-3)Gal(b1-4)GlcNAc
# In short: as §1
# [9] = target: Gal(b1-3)GalNAc(b1-4)Gal(b1-4)Glc
# In short: as §1
# [10] = target: Gal(b1-3)GalNAc(b1-4)[Neu5Ac(a2-3)]Gal(b1-4)Glc
# In short: as §1
# [11] = target: Gal(b1-3)[Fuc(a1-4)]GlcNAc
# In short: as §1
# [12] = target: Gal(b1-3)[Fuc(a1-4)]GlcNAc(b1-3)Gal(b1-4)GlcNAc
# In short: as §1
# [13] = target: Gal(b1-3)[Fuc(a1-4)]GlcNAc(b1-3)Gal(b1-4)[Fuc(a1-3)]GlcNAc
# In short: as §1
# [14] = target: Gal(b1-3)[GlcNAc(b1-6)]GalNAc
# In short: as §1
# [15] = target: Gal(b1-3)[GlcNAc(b1-6)]GlcNAc
# In short: as §1
# [16] = target: Gal(b1-3)[Neu5Ac(a2-6)]GalNAc
# In short: as §1
# [17] = target: Gal(b1-3)[Neu5Ac(a2-6)]GlcNAc
# In short: as §1
# [18] = target: Gal(b1-3)[Neu5Ac(a2-6)]GlcNAc(a1-4)Gal(b1-4)Glc
# In short: as §1
# [19] = target: Gal(b1-3)[Neu5Ac(b2-6)]GlcNAc
# In short: as §1
# [20] = target: Gal(b1-4)GalNAc(a1-3)[Fuc(a1-2)]Gal(b1-4)GlcNAc
# In short: as §1
# [21] = target: Gal(b1-4)GalNAc(b1-3)[Fuc(a1-2)]Gal(b1-4)GlcNAc
# In short: as §1
# [22] = target: Gal(b1-4)Glc
# In short: as §1
# [23] = target: Gal(b1-4)Glc6S
# In short: as §1
# [24] = target: Gal(b1-4)GlcNAc
# In short: as §1
# [25] = target: Gal(b1-4)GlcNAc(b1-2)Man(a1-3)[Gal(b1-4)GlcNAc(b1-2)Man(a1-6)]Man(b1-4)GlcNAc(b1-4)GlcNAc
# In short: as §1
# [26] = target: Gal(b1-4)GlcNAc(b1-3)Gal(b1-4)Glc
# In short: as §1
# [27] = target: Gal(b1-4)GlcNAc(b1-3)Gal(b1-4)GlcNAc
# In short: as §1
# [28] = target: Gal(b1-4)GlcNAc(b1-3)Gal(b1-4)GlcNAc(b1-3)Gal(b1-4)GlcNAc
# In short: as §1
# [29] = target: Gal(b1-4)GlcNAc(b1-3)Gal(b1-4)[Fuc(a1-3)]GlcNAc(b1-3)Gal(b1-4)[Fuc(a1-3)]GlcNAc
# In short: as §1
# [30] = target: Gal(b1-4)GlcNAc(b1-3)GalNAc
# In short: as §1
# [31] = target: Gal(b1-4)GlcNAc(b1-3)[Gal(b1-4)GlcNAc(b1-6)]GalNAc
# In short: as §1
# [32] = target: Gal(b1-4)GlcNAc(b1-6)GalNAc
# In short: as §1
# [33] = target: Gal(b1-4)GlcNAc(b1-6)[Gal(b1-3)]GalNAc
# In short: as §1
# [34] = target: Gal(b1-4)GlcNAc(b1-6)[Gal(b1-3)]GlcNAc
# In short: as §1
# [35] = target: Gal3S(b1-3)GalNAc
# In short: as §1
# [36] = target: Gal3S(b1-3)GlcNAc
# In short: as §1
# [37] = target: Gal3S(b1-3)[Fuc(a1-4)]GlcNAc
# In short: as §1
# [38] = target: Gal3S(b1-4)Glc
# In short: as §1
# [39] = target: Gal3S(b1-4)Glc6S
# In short: as §1
# [40] = target: Gal3S(b1-4)GlcNAc
# In short: as §1
# [41] = target: Gal3S(b1-4)GlcNAc6S
# In short: as §1
# [42] = target: Gal3S6S(b1-4)GlcNAc
# In short: as §1
# [43] = target: Gal3S6S(b1-4)GlcNAc6S
# In short: as §1
# [44] = target: Gal4S(b1-4)GlcNAc
# In short: as §1
# [45] = target: Gal4S6S(b1-4)GlcNAc
# In short: as §1
binder,measurement,setting,value
B1,glycan array binding signal (z-score),[1],-0.407
same,glycan array binding signal (z-score),[2],-0.039
same,glycan array binding signal (z-score),[3],-0.365
same,glycan array binding signal (z-score),[4],-0.393
same,glycan array binding signal (z-score),[5],-0.422
same,glycan array binding signal (z-score),[6],-0.486
same,glycan array binding signal (z-score),[7],-0.445
same,glycan array binding signal (z-score),[8],-0.431
same,glycan array binding signal (z-score),[9],-0.405
same,glycan array binding signal (z-score),[10],-0.408
same,glycan array binding signal (z-score),[11],-0.382
same,glycan array binding signal (z-score),[12],-0.101
same,glycan array binding signal (z-score),[13],-0.352
same,glycan array binding signal (z-score),[14],-0.173
same,glycan array binding signal (z-score),[15],-0.485
same,glycan array binding signal (z-score),[16],0.022
same,glycan array binding signal (z-score),[17],-0.354
same,glycan array binding signal (z-score),[18],0.029
same,glycan array binding signal (z-score),[19],-0.3
same,glycan array binding signal (z-score),[20],-0.337
same,glycan array binding signal (z-score),[21],-0.422
same,glycan array binding signal (z-score),[22],-0.299
same,glycan array binding signal (z-score),[23],-0.223
same,glycan array binding signal (z-score),[24],-0.404
same,glycan array binding signal (z-score),[25],-0.471
same,glycan array binding signal (z-score),[26],-0.227
same,glycan array binding signal (z-score),[27],-0.389
same,glycan array binding signal (z-score),[28],-0.304
same,glycan array binding signal (z-score),[29],-0.364
same,glycan array binding signal (z-score),[30],-0.452
same,glycan array binding signal (z-score),[31],-0.184
same,glycan array binding signal (z-score),[32],0.008
same,glycan array binding signal (z-score),[33],0.127
same,glycan array binding signal (z-score),[34],-0.411
same,glycan array binding signal (z-score),[35],-0.297
same,glycan array binding signal (z-score),[36],-0.166
same,glycan array binding signal (z-score),[37],-0.33
same,glycan array binding signal (z-score),[38],-0.351
same,glycan array binding signal (z-score),[39],1.7
same,glycan array binding signal (z-score),[40],0.093
same,glycan array binding signal (z-score),[41],3.64
same,glycan array binding signal (z-score),[42],3.32
same,glycan array binding signal (z-score),[43],4.75
same,glycan array binding signal (z-score),[44],0.127
same,glycan array binding signal (z-score),[45],3.25
